Experimental data: PubChem BioAssay AID602310 (National Center for Advancing Translational Sciences (NCATS), 2012)
Among all 410,000 compounds or so, about 310 (0.076%) were called active. Inconclusive means that the source gave no clear call. Such entries were picked first, then a sample of the others. The call rests on the fitted dose curve; in most records, active means well fitted curve in the direction sought with a large enough effect; inconclusive means small, poorly fitted or top-dose-only effect; inactive means flat fitted curve, though single readings scatter. Where the call is inconclusive, the potency comes from a doubtful curve fit.

biological target: DNA dC->dU-editing enzyme APOBEC-3G (Homo sapiens) (UniProt Q9HC16); assay: qHTS for Inhibitors of Vif-A3G Interactions: qHTS; conditions: HeLa A3G-eYFP + Vif (tagged APOBEC3G with the HIV-1 protein that degrades it), YFP fluorescence, overnight; series mostly up to 46.1 µM; activity, negative = active: at the top concentration; further: nearly all actives have a fitted effect of over 60% in size;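 on activity, negative = active: hits raise eYFP signal because A3G escapes Vif-driven loss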
UniProt Q9HC16, sequence (Q9HC16 whole entry, looked up): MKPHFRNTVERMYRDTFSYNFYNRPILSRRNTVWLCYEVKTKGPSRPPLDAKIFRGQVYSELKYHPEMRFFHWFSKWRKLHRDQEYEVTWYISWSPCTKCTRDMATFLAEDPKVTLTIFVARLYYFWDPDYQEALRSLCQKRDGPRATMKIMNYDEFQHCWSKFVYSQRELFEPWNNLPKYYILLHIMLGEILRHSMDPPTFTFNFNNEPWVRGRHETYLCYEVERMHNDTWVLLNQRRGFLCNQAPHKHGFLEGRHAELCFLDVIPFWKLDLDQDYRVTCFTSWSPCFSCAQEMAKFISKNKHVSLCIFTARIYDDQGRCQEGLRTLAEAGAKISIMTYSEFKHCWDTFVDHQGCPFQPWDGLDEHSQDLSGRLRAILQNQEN
Method in brief: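 HeLa cells stably expressing Vif and C-terminally eYFP-tagged A3G, seeded overnight at 37 deg C, then exposed to compound by pintool overnight at 37 deg C. Rise in yellow fluorescence (Ex 488/Em 500-530, Acumen) marks blocked Vif-driven A3G degradation.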
On the % scale 0 is the no-effect control and ±100 the full control effect; potency means the concentration at half of the fitted maximal effect; tags describe the fitted curve by direction and shape.

| SMILES | activity, negative = active | Potency |
| --- | --- | --- |
| Cc1ccc(NC(=O)Nc2csc3c2CCCC3)c(C)c1 | inactive: -1.83% |  |
| O=[N+]([O-])c1ccc(NN=Cc2ccccc2O)nc1 |  | inconclusive: 22.4 µM [inhibitor, single point] |
| N#C/C(=C\c1ccccc1)C(=O)Nc1ccccn1 | inactive: -5.15% |  |
| COc1ccc(-n2nc3c(N4CCCC(C(=O)NCc5ccccc5C)C4)nnc(C)c3c2C)cc1 (stereo unspecified) |  | inconclusive: 22.4 µM [inhibitor, single point] |
| Cc1nnc(SCC(=O)NCc2cccc(F)c2)c2nn(-c3ccccc3)c(C)c12 |  | inconclusive: 15.8 µM [inhibitor, single point] |
| CN1CCN(C(=S)C(=O)Nc2ccc(Br)cc2)CC1 | inactive: 0.907% |  |
| COc1ccc2c(N)c(C(=O)NN)[nH]c2c1 | inactive: -3.83% |  |
| CCOc1ccc(CSC(=N)N)cc1[N+](=O)[O-] |  | inconclusive: 25.1 µM [inhibitor, single point] |
| O=S1(=O)C=C(Sc2nc3cc(Cl)ccc3o2)c2ccccc21 |  | inconclusive: 8.91 µM [inhibitor, partial curve, poor fit] |
| COc1ccc(OC)c(-n2c(-c3cc(-c4ccc(F)cc4)n[nH]3)n[nH]c2=S)c1 |  | inconclusive: 35.5 µM [inhibitor, partial curve, poor fit] |
| CCc1ccc(S(=O)(=O)Nc2cc3c(cc2C)n(C)c(=O)n3C)cc1 |  | inconclusive: 7.94 µM [inhibitor, partial curve, poor fit] |
| COc1ccc(-c2cnc3c(NC(C)=O)cc(-c4ccc(C(=O)NC5CC5)cc4)cn23)cc1OC |  | inconclusive: 35.5 µM [inhibitor, single point] |
| CN1CCN(c2ccc(-c3cc(NC=O)c4ncc(-c5ccc(F)cc5)n4c3)cc2)CC1 |  | inconclusive: 35.5 µM [inhibitor, single point] |
| CCOC(=O)c1[nH]c2c(c1C)C(=O)CC(c1ccco1)C2 (stereo unspecified) |  | inconclusive: 0.891 µM [inhibitor, full curve, poor fit] |
| Cc1cccc(Nc2nc(-c3ccc(O)c(O)c3)cs2)n1 |  | inconclusive: 35.5 µM [inhibitor, single point] |
| COc1cccc(CNc2ncc(C(=O)Nc3cc(OC)c(OC)c(OC)c3)c(C)n2)c1 |  | inconclusive: 2.82 µM [inhibitor, full curve, poor fit] |
| C#CCOc1c(Br)cc(C2C(C(=O)OC)=C(C)NC3=C2C(=O)c2ccccc23)cc1OCC (stereo unspecified) |  | inconclusive: 3.55 µM [inhibitor, single point] |
| Cc1ccccc1NC(=O)Cn1nnc(C(=O)NCc2ccco2)c1N |  | inconclusive: 12.6 µM [inhibitor, single point] |
| Cc1[nH]n(-c2ccccc2)c(=O)c1C=Nc1cccc(F)c1 | inactive: -6.37% |  |
| N#CC(C#N)=C1C=CC=CN1/C(=C\c1ccco1)C(=O)c1ccc(Cl)cc1 |  | inconclusive: 7.08 µM [inhibitor, full curve] |
| Cc1ccc(-c2cn3cccnc3n2)cc1NC(=O)c1c(-c2ccccc2Cl)noc1C |  | inconclusive: 6.31 µM [inhibitor, partial curve, poor fit] |

| SMILES | activity, negative = active | Potency |
| --- | --- | --- |
| COc1ccc(CCNC(=O)Cn2c(=O)cc(C(F)(F)F)c3c(C)nn(C)c32)c(OC)c1 | inactive: 4.39% |  |
| Oc1ccccc1-c1nc(NCc2ccco2)c2ccccc2n1 |  | inconclusive: 35.5 µM [inhibitor, partial curve, poor fit] |
| CCN(CC)c1ccc(NC(=O)c2cccc(F)c2)c(C)c1 |  | inconclusive: 6.31 µM [inhibitor, full curve] |
| COc1cc(/C=C2\C(=N)N3N=C(S(C)(=O)=O)SC3=NC2=O)cc(OC)c1OCCOc1cccc(C)c1 | inactive: -0.789% |  |
| CCC(C)c1ccc(NC(=O)Nc2cnccn2)cc1 (stereo unspecified) |  | inconclusive: 20 µM [inhibitor, partial curve, poor fit] |
| Cc1ccc(Oc2ccc(S(=O)(=O)N3CCOCC3)cc2C(N)=O)c(-n2nc3ccccc3n2)c1 |  | inconclusive: 7.08 µM [inhibitor, full curve] |
| COc1cccc(OCCn2c(-c3ccc(Cl)cc3)nc3ccccc3c2=O)c1 | inactive: 0.987% |  |
| COc1cc(NC(=O)c2cc(-c3ccccc3Cl)on2)cc(OC)c1OC |  | inconclusive: 3.16 µM [inhibitor, partial curve, poor fit] |
| CCOC(=O)C(C)Oc1cccc2c(=O)n(CC(=O)NCc3ccco3)ccc12 (stereo unspecified) |  | inconclusive: 2.82 µM [inhibitor, partial curve, poor fit] |
| C/C(Cc1ccccc1)=N\NC(=O)CNC(=O)c1ccc(Cl)cc1Cl |  | inconclusive: 28.2 µM [inhibitor, single point] |
| COc1cc(C(=O)N/N=C/c2cc([N+](=O)[O-])cs2)cc(OC)c1OC |  | inconclusive: 1.41 µM [inhibitor, full curve, poor fit] |
| Cc1ccc2cc(CN(Cc3ccco3)C(=O)c3ccco3)c3nnnn3c2c1 | inactive: 1.21% |  |
| Cc1ccc(C(=O)n2c3ccccc3c3ccccc32)cc1 |  | inconclusive: 2.82 µM [inhibitor, full curve, poor fit] |
| CCC1=Nc2cc(C(=O)NC3CCCC3)ccc2Sc2ccc(Cl)cc21 |  | inconclusive: 0.562 µM [inhibitor, full curve, poor fit] |
| COC(=O)Nc1ccc2c(c1)N(C(=O)CCCl)c1ccccc1S2 |  | inconclusive: 20 µM [inhibitor, single point] |
| Cc1cc2nc3c(=O)n(Cc4ccccc4)c(=O)[nH]c3nc2cc1N |  | inconclusive: 3.16 µM [inhibitor, full curve] |
| Cc1ccc(NC2=NC3(CCCC3)N=C(N)N2)c(C)c1 |  | inconclusive: 35.5 µM [inhibitor, single point] |
| CCCCN(C)c1nc(-c2ccco2)c2c(c1C#N)CC(C)(C)OC2 |  | inconclusive: 35.5 µM [inhibitor, single point] |
| O=C(Cn1nc(-c2ccccc2)ccc1=O)Nc1ccc(N2CCN(C(=O)c3cccs3)CC2)cc1 | inactive: 3.65% |  |
| S=c1[nH]nc(COc2ccccc2)n1/N=C/C(Cl)=C/c1ccccc1 |  | inconclusive: 28.2 µM [inhibitor, single point] |
